Reference: PMC6919601, “Identification of Plasmodium dipeptidyl aminopeptidase allosteric inhibitors by high throughput screening” (PLoS ONE, 2019)
Hit rate of the full screen: of about 110,000 compounds, about 230 (0.21%) showed an effect of 50% or more. This is one part of the list.

What follows are molecules tested against DPAP1 (Plasmodium falciparum, UniProt Q8IIJ9) (assay: primary screen, percent inhibition; read by cleavage of a fluorogenic dipeptide substrate; higher = more effect of the substance).
Set-up: species or system P. falciparum D10 trophozoite lysates; single well
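Further: 30 min substrate incubation versus DMSO and 10 µM JCP410 controls.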

Sequence of DPAP1 (Q8IIJ9 whole entry, looked up): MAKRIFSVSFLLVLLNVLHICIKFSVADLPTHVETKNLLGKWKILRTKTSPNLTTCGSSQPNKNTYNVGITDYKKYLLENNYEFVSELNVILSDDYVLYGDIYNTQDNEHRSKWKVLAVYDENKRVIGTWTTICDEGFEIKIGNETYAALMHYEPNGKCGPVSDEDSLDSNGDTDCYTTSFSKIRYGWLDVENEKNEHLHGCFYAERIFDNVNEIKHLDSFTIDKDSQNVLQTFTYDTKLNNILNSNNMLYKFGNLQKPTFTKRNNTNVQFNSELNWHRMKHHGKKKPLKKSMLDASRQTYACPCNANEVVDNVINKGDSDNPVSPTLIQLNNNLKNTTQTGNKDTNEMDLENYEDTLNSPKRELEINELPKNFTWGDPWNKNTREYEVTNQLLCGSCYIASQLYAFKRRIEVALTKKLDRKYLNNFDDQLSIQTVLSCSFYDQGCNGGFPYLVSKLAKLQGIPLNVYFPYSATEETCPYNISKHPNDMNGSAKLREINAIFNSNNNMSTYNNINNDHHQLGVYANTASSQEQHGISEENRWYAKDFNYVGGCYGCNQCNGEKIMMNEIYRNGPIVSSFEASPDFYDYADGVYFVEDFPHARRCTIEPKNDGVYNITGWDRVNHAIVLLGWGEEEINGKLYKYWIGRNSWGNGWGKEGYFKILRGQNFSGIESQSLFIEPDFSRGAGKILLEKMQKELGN

First: Cc1ccnc(NC2(C(F)(F)F)N=C(c3ccccc3)NC2=O)c1 (centres unmarked)
Second: Cc1ccc(-c2cc(-c3ccccc3)nc(Cl)n2)cc1
The “% Inhibition @ 10 uM” value of the first is lower: 0.00626% for the first, 9.86% for the second.

Compared with CCOc1cc(Br)c(C2C(C#N)=C(N)Oc3c2ccc2ccccc32)cc1OC (centres unmarked), CCOc1cc(C=C2C(=O)c3ccccc3C2=O)cc(Br)c1O is lower in “% Inhibition @ 10 uM” value: 3.06% for the first, 0.275% for the second.

Compared with c1ccc(-c2ccc(CN3CCN(c4ccccn4)CC3)cc2)cc1, O=C(NCc1cccnc1)c1ccc(-c2ccccc2)cc1 is higher in “% Inhibition @ 10 uM” value: -0.405% for the first, 3.53% for the second.

First: Nc1cc(O)nc(SCC(=O)Nc2ccc(Br)cn2)n1
Second: O=C(CSc1nccc(O)n1)n1c2c(c3ccccc31)CCCC2
The “% Inhibition @ 10 uM” value of the first is lower: -3.28% for the first, 3.66% for the second.

Compared with CCOCCOc1nc2ccccc2s1, Cc1cc(OCC(=O)NCc2nc3ccccc3[nH]2)cc(C)c1Cl is higher in “% Inhibition @ 10 uM” value: 0.827% for the first, 5.7% for the second.

Going from c1ccc2c(c1)[nH]c1nc3nncn3nc12 to Cc1[nH]c2ccccc2c1/C=N/NC(N)=S, the “% Inhibition @ 10 uM” value rises from -8.44% to 3.39%.

Going from Cn1nc(C(F)(F)F)cc1C(=O)NC12CC3CC(CC(C3)C1)C2 to CCOC(=O)C(/C=N/C12CC3CC(CC(C3)C1)C2)=C(\O)OCC, the “% Inhibition @ 10 uM” value falls from 13.7% to -5.28%.

Going from Cc1ccc([N+]2=C3SCCCN3C(O)(c3ccc(OC(F)F)cc3)C2)cc1 (centres unmarked) to CCOc1ccc(OCc2cccc(C(=O)N3CCCC3)c2)cc1, the “% Inhibition @ 10 uM” value rises from -3.02% to 8.19%.

First: Cc1ccc(C(=O)O)c2c1N[C@@H](c1ccccc1F)[C@H]1CC=C[C@@H]21
Second: COc1ccc(C(=O)/C=C2\C(=O)Nc3ccccc32)cc1
The “% Inhibition @ 10 uM” value of the first is lower: -4.59% for the first, -2.51% for the second.

Compared with COc1ccc2c(CNCCc3ccc(OC)c(OC)c3)c(C(=O)O)n(Cc3ccccc3C)c2c1, COc1ccc(NC(=O)CN(c2cc(C)ccc2OC)S(C)(=O)=O)c(OC)c1 is higher in “% Inhibition @ 10 uM” value: -4.37% for the first, 2.33% for the second.

Going from O=C(Nc1c(-c2ccc(F)cc2)nc2ccccn12)c1ccc2ccccc2c1 to CCOc1ccc(-c2cc(C(=O)NCC3COc4ccccc4O3)c3ccccc3n2)cc1 (centres unmarked), the “% Inhibition @ 10 uM” value falls from 0.813% to -2.26%.

Compared with CC(=O)N1CCN(C2CCC(C)CC2)CC1 (centres unmarked), CN1CCC(NCCC2CCCN2C)CC1 (centres unmarked) is lower in “% Inhibition @ 10 uM” value: 2.91% for the first, -4.04% for the second.

Going from Cc1ccc(C2CC(=O)NC3=C2C(=O)CC(C)(C)C3)cc1Br (centres unmarked) to O=C1CC(c2cc(F)ccc2F)c2cc3c(cc2N1)OCO3 (centres unmarked), the “% Inhibition @ 10 uM” value rises from -7.27% to 0.475%.

Compared with O=C(NC1CCCCC1)c1nc(-c2ccncc2)no1, O=C(NCc1noc2ccccc12)N(Cc1ccco1)C1CCCC1 is lower in “% Inhibition @ 10 uM” value: 1.51% for the first, -1.39% for the second.

First: Cc1ccccc1CS(=O)(=O)Cc1ccc(C(=O)N2CCOCC2)o1
Second: Cc1ccccc1CS(=O)(=O)Cc1ccc(C(=O)Nc2noc3ccccc23)o1
The “% Inhibition @ 10 uM” value of the first is lower: -1.79% for the first, 0.569% for the second.

Compared with COc1ccc(NC(=O)c2cc(Cl)ccc2Cl)cc1OC, COc1ccc(NC(=O)c2ccc(Cl)cc2)c2ncccc12 is higher in “% Inhibition @ 10 uM” value: 1.08% for the first, 3.7% for the second.

Going from COC(=O)c1cc2cc(Br)ccc2[nH]1 to COc1cc(SC)ccc1C(=O)NCc1ccc2[nH]c3c(c2c1)CCCC3, the “% Inhibition @ 10 uM” value falls from 4.31% to 2.6%.

Compared with CCCCNC(=O)c1c(C)c(C(=O)OCC)n(CC)c1C, CCOC(=O)c1c2c(c(S)sc1=N)CCC2 is higher in “% Inhibition @ 10 uM” value: 1.72% for the first, 5.59% for the second.

First: COc1ccc(C(=O)CSc2nc(-c3ccccc3)c[nH]2)cc1
Second: CCOc1ccc(-c2cn(-c3ccc(OC)cc3)c(SCC(=O)Nc3nccs3)n2)cc1
The “% Inhibition @ 10 uM” value of the first is lower: 2.9% for the first, 6.5% for the second.

First: COc1ccc(S(=O)(=O)N2CCCCC2)cc1-c1nnc2c3ccccc3c(C)nn12
Second: COc1ccc(-c2nn(C)c(=O)c3ccccc23)cc1CNC(=O)C1CCCCC1
The “% Inhibition @ 10 uM” value of the first is higher: 2.31% for the first, 2.1% for the second.

First: CCCS(=O)(=O)NCCc1cc2ccc(C)cc2nc1O
Second: Cc1ccccc1-c1noc(CCC(=O)NCC(C)C)n1
The “% Inhibition @ 10 uM” value of the first is lower: -1.7% for the first, 0.366% for the second.

Compared with CC1=C(C)CC2C(=O)N(c3ccccc3F)C(=O)C2C1 (centres unmarked), Cc1ccccc1-n1c(C)nc2ccsc2c1=O is lower in “% Inhibition @ 10 uM” value: -0.185% for the first, -1.12% for the second.

First: Cc1ccc(Cn2ncc3ccccc32)cc1
Second: Cn1c(=O)n(Cc2ccccc2Cl)c2ccccc21
The “% Inhibition @ 10 uM” value of the first is lower: -7.24% for the first, 10.2% for the second.

Compared with Clc1ccc2nc(NC3=NCN(CCN4CCOCC4)CN3)nc(-c3ccccc3)c2c1, Cc1cc(C)n2nc3nc(N4CCCCC4)nc(-c4ccccc4)c3c2n1 is higher in “% Inhibition @ 10 uM” value: -1.69% for the first, 6.01% for the second.

Compared with CCOc1cc2c(cc1/C=C1/SC(=O)N(Cc3ccccc3)C1=O)OCO2, COC(=O)C1=C(C)N(Cc2ccco2)C(=O)/C1=C\c1ccc(Cl)c(Cl)c1 is higher in “% Inhibition @ 10 uM” value: -14.4% for the first, 0.131% for the second.

First: COC(=O)C1=CN(C(C)C)C=C(C(=O)OC)C1c1cccc(Oc2ccccc2)c1
Second: COC(=O)C1=CN(C)C=C(C(=O)OC)C1c1ccc(O)c(OC)c1
The “% Inhibition @ 10 uM” value of the first is higher: 4.99% for the first, -1.48% for the second.

First: COc1cc(S(=O)(=O)N2CCN(c3ccc(C)cc3)CC2)c(OC)cc1Br
Second: C=CCOc1ccc(CNc2ccc(N3CCCC3)cc2)cc1OC
The “% Inhibition @ 10 uM” value of the first is higher: 1.28% for the first, 0.408% for the second.

Going from c1ccc(-c2nc(-c3ccccc3)c(-c3ccccc3)[nH]2)cc1 to O=C(Nc1ccc(S(=O)(=O)N2CCCC2)cc1)C(c1ccccc1)c1ccccc1, the “% Inhibition @ 10 uM” value falls from -1.76% to -3.97%.

Going from CC1(C)Oc2ccc3ccc(=O)oc3c2/C(=C/c2ccc([N+](=O)[O-])cc2)C1=O to CN(C)c1ccc(/C=C2\C(=O)N(c3ccc([N+](=O)[O-])cc3)N=C2c2ccccc2)cc1, the “% Inhibition @ 10 uM” value rises from 3.74% to 4.22%.

Going from CSc1nc2c(sc3ccccc32)c(=O)n1CC1CCCO1 (centres unmarked) to Cc1nc2c(-c3ccccc3)c(C)nn2c(C)c1CC(=O)NCC1CCCO1 (centres unmarked), the “% Inhibition @ 10 uM” value falls from 3.05% to -4.24%.

Compared with O=C(CC1CC2CCC1C2)N1CCN(Cc2ccc(Cl)cc2)CC1 (centres unmarked), CC1(C)[C@H]2CC=C(CN3CCN(c4ccccc4)CC3)[C@@H]1C2 is higher in “% Inhibition @ 10 uM” value: -1.46% for the first, -0.446% for the second.

Compared with O=C(C1=C(O)C(=O)N(c2ncccn2)C1c1cccc(F)c1)c1ccccc1 (centres unmarked), O=C(NCc1cccnc1)C1c2ccccc2C(=O)N1CCc1ccc(Cl)cc1 (centres unmarked) is higher in “% Inhibition @ 10 uM” value: -6.62% for the first, 4.07% for the second.

Going from NC(=O)C1CCCN(Cc2cccc(Cl)c2Cl)C1 (centres unmarked) to COc1cc(C)c(CN2CCCC(C)C2)cc1C (centres unmarked), the “% Inhibition @ 10 uM” value falls from -2.95% to -4.14%.

Going from COc1ccc(CCN2C(=O)C3C4CCC(C4=C(C)C)C3C2=O)cc1OC (centres unmarked) to COc1cc(C(=O)N(CCc2ccccc2)C2=CC3CCC(C2)N3C)cc(OC)c1OC (centres unmarked), the “% Inhibition @ 10 uM” value rises from -2.8% to 3.01%.

Compared with NC(=O)c1c(NC(=O)COCc2cc(-c3cccs3)on2)sc2c1CCCC2, Cc1ccccc1C(=O)Nc1sc2c(c1C(N)=O)CCC(C)C2 (centres unmarked) is lower in “% Inhibition @ 10 uM” value: 3.62% for the first, -9.66% for the second.

Compared with Cc1cccc(-n2nnc(C(=O)N3CCc4ccccc4C3)c2N)c1, CC(=O)c1cccc(N2Cc3ccccc3C2)c1 is higher in “% Inhibition @ 10 uM” value: -4.38% for the first, 2% for the second.

First: CC(C)c1ccc(-c2c(NCCCN3CCN(C4CCCCC4)CC3)c(=O)c2=O)cc1
Second: CC(C)C(=O)N1CCN(c2ccc(NC(=O)c3ccc(Br)o3)cc2Cl)CC1
The “% Inhibition @ 10 uM” value of the first is lower: 1.42% for the first, 1.63% for the second.

Compared with CCOc1c(O)cc2c(C)cc(=O)oc2c1OCC, CCOc1ccc(C(=O)Nc2ccc(N(CC)CC)cc2)cc1 is lower in “% Inhibition @ 10 uM” value: 1.8% for the first, 0.13% for the second.

Going from CCOc1ccc(N2CC(=O)NC2=O)cc1 to CCOc1ccc(N2CC(C(=O)NC3=NCCS3)CC2=O)cc1 (centres unmarked), the “% Inhibition @ 10 uM” value rises from -4.18% to -3.53%.

Compared with CC(=O)N1CCC2(CC1)OC(=O)C(C)=C2C(=O)NCc1ccc(C)cc1, COc1ccc(N2C(=O)CCC(C(C)=O)=C2C)cc1 is lower in “% Inhibition @ 10 uM” value: -1.04% for the first, -1.69% for the second.

Going from COc1cccc(Cn2cc(C(=O)c3ccc(C)cc3)c(=O)c3ccc(C)nc32)c1 to CCOC(=O)c1cccc(-c2ccc(/C=C3/C(=N)N4OC(C)=CC4=NC3=O)o2)c1, the “% Inhibition @ 10 uM” value falls from 9.54% to 3.63%.

Going from Cc1cccc(OCCSc2nc3ccccc3n2CCC(=O)O)c1 to Cn1c(NCc2cc(Cl)cc(Cl)c2O)nc2ccccc21, the “% Inhibition @ 10 uM” value falls from 16.9% to -8.7%.

Going from N=C(NC(=O)c1ccc(Cl)c(Cl)c1)Nc1nc(=O)c2ccccc2s1 to N#C/C(=C\c1ccc(Br)cc1)c1nc(-c2ccc(Cl)c(Cl)c2)cs1, the “% Inhibition @ 10 uM” value rises from -2.87% to 1.41%.

First: CC(C)(C)c1ccc(C(=O)O/N=C(\N)c2ccc(Br)cc2)cc1
Second: O=C(Nc1ccc(Sc2ccc(NC(=O)C(F)(F)F)cc2)cc1)C(F)(F)F
The “% Inhibition @ 10 uM” value of the first is lower: 0.484% for the first, 3.69% for the second.

First: CC(C)CN1C(=O)c2ccccc2C(C(=O)NCc2ccco2)C1c1cccs1 (centres unmarked)
Second: Cc1cccc(C2Oc3ccccc3C3CC(c4cccs4)=NN32)c1O (centres unmarked)
The “% Inhibition @ 10 uM” value of the first is lower: 1.69% for the first, 7.56% for the second.

First: O=C1COC(c2ccccc2)C2CCCCN12 (centres unmarked)
Second: CCn1c2ccccc2c2cc(CN(C)C3CCCCC3)ccc21
The “% Inhibition @ 10 uM” value of the first is lower: -2.76% for the first, 4.9% for the second.

Compared with C=CCOc1ccc(CC(NC(=O)OCc2ccccc2)C(=O)NCC#N)cc1 (centres unmarked), CCN1CCC(C#N)(NC(=O)[C@H](Cc2c(F)cc(OC)cc2F)NC(=O)c2ccc(-c3ccccc3Cl)cc2)CC1 is higher in “% Inhibition @ 10 uM” value: -6.98% for the first, -3.14% for the second.

First: Cn1c(=O)c2c(nc3n(CCc4ccccc4)c(C45CC6CC(CC(C6)C4)C5)cn23)n(C)c1=O
Second: C=CCn1c(SCC(=C)C)nc2c1c(=O)n(C)c(=O)n2C
The “% Inhibition @ 10 uM” value of the first is lower: 0.503% for the first, 0.674% for the second.

First: O=C(O)c1cccc([N+](=O)[O-])c1C(=O)Nc1ccc(O)cc1
Second: COCCCNC(=O)CSc1[nH]c(-c2ccc(OC)cc2)nc1-c1ccc(F)cc1
The “% Inhibition @ 10 uM” value of the first is lower: -6.83% for the first, 6.59% for the second.

Compared with Cc1ccnc(NC(=O)CCc2nnc3ccc(N4CCC(C)CC4)nn23)c1, c1ccc2c(c1)N1CCCN=C1N2CCN1CCCCC1 is lower in “% Inhibition @ 10 uM” value: 1.39% for the first, -4.04% for the second.

In the case of CC(C)CCNc1ncnc2c1cnn2C, the “% Inhibition @ 10 uM” value is reported as -1.97%.
